In PubChem BioAssay AID1159554 (Broad Institute, 2015):
Several values for one entry are separate records, joined by “and”; a condition that tells them apart may be missing. Equal entries are not always repeated. Out of some 94,000 compounds screened, about 2,100 (2.2%) were called active. The inconclusive results got no clear call from the source; some entries with a clear call stand among them for comparison. Rule as the data show it: active = activity change below about -80%; inconclusive = no clear call, values can overlap the other calls; inactive = above that.

assay: P. falciparum Dd2 growth inhibitors, primary screen, SYBR Green fluorescence, single dose replicates (AID 1159554); details: 72 h, at 10 µM, stronger effect = lower value

| Structure (SMILES) | activity change |
| --- | --- |
| Cc1ccc(S(=O)(=O)N(C)C[C@H]2OCCCC[C@H](C)Oc3ccc(NC(=O)NC4CCCCC4)cc3C(=O)N([C@@H](C)CO)C[C@@H]2C)cc1 | inconclusive: -80.6% |
| CN1C(=O)c2cc(NC(=O)c3cccc(F)c3)ccc2OC[C@H]2O[C@H](CC(=O)NCC3CCCCC3)CC[C@H]21 | inconclusive: -80.1% |
| C[C@H](CO)N1C[C@H](C)[C@@H](CN(C)C(=O)CCCN(C)C)OCc2cnnn2CCCC1=O | inconclusive: -82% |
| C[C@H](CO)N1C[C@H](C)[C@@H](CN(C)CC2CC2)Oc2ccc(NC(=O)Nc3cccc4ccccc34)cc2CC1=O | active: -86.3% |
| COc1ccccc1CNC(=O)C[C@@H]1CC[C@@H]2[C@H](COC[C@@H](O)CN2C(=O)Nc2ccccc2)O1 | inactive: -2.84% |
| C[C@@H]1CCCCO[C@H](CN(C)Cc2ccncc2)[C@H](C)CN([C@H](C)CO)C(=O)c2cc(NS(C)(=O)=O)ccc2O1 | inactive: -1.97% |
| CC(C)NC(=O)N(C)C[C@@H]1Oc2c(NC(=O)C3CCOCC3)cccc2C(=O)N([C@@H](C)CO)C[C@@H]1C | inactive: 22.7% |
| C[C@H](CO)N1C[C@H](C)[C@H](CN(C)S(=O)(=O)c2ccccc2)Oc2ncc(/C=C/c3ccccc3)cc2C1=O | inactive: -58.8% and inactive: -49.3% |
| CCCN(C)C[C@H]1OCCCC[C@H](C)Oc2ccc(NS(=O)(=O)c3cccs3)cc2C(=O)N([C@H](C)CO)C[C@H]1C | inconclusive: -83.1% |
| CCCNC(=O)N1C[C@H](O)COC[C@H]2O[C@@H](CC(=O)N3CCCCC3)CC[C@@H]21 | inactive: 4.85% |
| CCCN(C)C[C@@H]1OCCCC[C@H](C)Oc2ccc(NC(=O)Nc3ccc4c(c3)OCO4)cc2C(=O)N([C@H](C)CO)C[C@@H]1C | active: -87.6% |
| C[C@H]1CCCCO[C@H](CN(C)S(=O)(=O)c2ccc(Cl)cc2)[C@@H](C)CN([C@@H](C)CO)C(=O)c2cc(NC(=O)Nc3ccccc3)ccc2O1 | inconclusive: -80.7% |
| CO[C@H]1CN(C)C(=O)c2ccc(NS(C)(=O)=O)cc2OC[C@H](C)N(CCC(F)(F)F)C[C@@H]1C | inactive: -15.6% |
| C[C@@H]1CCCCO[C@H](CN(C)Cc2ccccc2)[C@H](C)CN([C@H](C)CO)C(=O)c2cc(NC(=O)NC3CCCCC3)ccc2O1 | inactive: -52.2% |
| Cc1noc(C)c1S(=O)(=O)Nc1ccc2c(c1)C(=O)N([C@H](C)CO)C[C@@H](C)[C@H](CN(C)S(=O)(=O)c1ccc(Cl)cc1)OCCCC[C@@H](C)O2 | inconclusive: -80% |
| COc1ccc(S(=O)(=O)N(C)C[C@@H]2Oc3cc(-c4cccc(F)c4)ccc3S(=O)(=O)N([C@@H](C)CO)C[C@H]2C)cc1 | inconclusive: -81.9% |
| C[C@H]1CN([C@@H](C)CO)S(=O)(=O)c2ccc(/C=C/c3ccccc3)cc2O[C@H]1CN(C)C(=O)c1ccccc1 | inconclusive: -81.9% |
| C[C@@H]1CCCCO[C@@H](CN(C)S(=O)(=O)c2ccc(Cl)cc2)[C@@H](C)CN([C@@H](C)CO)C(=O)c2cc(NC(=O)CCC(F)(F)F)ccc2O1 | inconclusive: -80.4% |
| COCCNC(=O)C[C@@H]1C[C@@H]2c3cc(NS(=O)(=O)c4ccc(F)cc4)ccc3O[C@@H]2[C@@H](CO)O1 | inactive: 12.4% |

| Structure (SMILES) | activity change |
| --- | --- |
| C[C@@H]1CN([C@H](C)CO)C(=O)c2c(c3ccccc3n2C)-c2ccccc2CO[C@@H]1CN(C)Cc1cccnc1 | inconclusive: -80.7% |
| C[C@H](CO)N1C[C@H](C)[C@@H](CN(C)Cc2ccc(C(F)(F)F)cc2)Oc2ccc(NC(=O)Nc3ccc(F)cc3)cc2CC1=O | inconclusive: -81.6% |
| CCCC(=O)Nc1ccc2c(c1)OC[C@H](C)N(Cc1ccc(-c3ccccn3)cc1)C[C@H](C)[C@H](OC)CN(C)C2=O | inconclusive: -80.2% |
| C[C@@H]1CN([C@@H](C)CO)C(=O)Cc2cc(NS(=O)(=O)c3ccc(F)cc3)ccc2O[C@@H]1CN(C)Cc1ccc(C(=O)Nc2ccccc2N)cc1 | inconclusive: -80.6% |
| COc1ccc(NC(=O)Nc2ccc3c(c2)C(=O)N([C@H](C)CO)C[C@@H](C)[C@@H](CN(C)Cc2ccc(C(F)(F)F)cc2)OCCCC[C@@H](C)O3)cc1 | inconclusive: -80.9% |
| O=C(c1ccccc1)N1CC[C@@H]2[C@@H](CO)Nc3ccc(-c4ccc(F)cc4)cc3[C@@H]21 | inconclusive: -80.1% |
| O=C(C[C@H]1C=C[C@H](NC(=O)C2CC2)[C@@H](CO)O1)NCc1ccccc1Cl | inactive: 16.2% |
| O=C(C[C@@H]1C=C[C@H](NC(=O)C2CC2)[C@@H](CO)O1)Nc1nccs1 | inactive: -14.2% |
| Cc1ccc(S(=O)(=O)NCC[C@H]2CC[C@@H](NC(=O)c3cnccn3)[C@H](CO)O2)cc1 | inactive: -0.834% |
| CCC(=O)N1CCC2(CC1)CN(CC1CCCCC1)[C@@H](CO)c1c2c2ccc(OC)cc2n1C | active: -85.5% |
| COc1ccc(NC(=O)Nc2ccc3c(c2)C(=O)N([C@@H](C)CO)C[C@@H](C)[C@@H](CN(C)CC2CCCCC2)OCCCC[C@@H](C)O3)cc1 | inconclusive: -81.6% |
| C[C@@H]1CN([C@@H](C)CO)S(=O)(=O)c2ccc(-c3cccc(C#N)c3)cc2O[C@H]1CN(C)Cc1cccc(F)c1 | active: -84.2% |
| C[C@@H]1CN([C@H](C)CO)C(=O)c2c(c3ccccc3n2C)-c2ccccc2CO[C@@H]1CN(C)Cc1cccc(C(F)(F)F)c1 | active: -87% |
| O=C(C[C@@H]1CC[C@H]2[C@@H](COC[C@H](O)CN2C(=O)Nc2cccc(Cl)c2)O1)N1CCCCC1 | inactive: 11.6% |
| C[C@@H]1CCCCO[C@@H](CN(C)Cc2ccccc2)[C@H](C)CN([C@@H](C)CO)C(=O)c2cc(NC(=O)Nc3ccc(F)cc3)ccc2O1 | inconclusive: -81.1% |
| CNC[C@H]1Oc2cc(C#CC3CCCC3)ccc2S(=O)(=O)N([C@H](C)CO)C[C@H]1C | inactive: -38.6% |
| C[C@H]1CN([C@@H](C)CO)S(=O)(=O)c2ccc(C#Cc3cccnc3)cc2O[C@H]1CN(C)C(=O)Nc1ccc2c(c1)OCO2 | inconclusive: -82.3% |
| COc1ccc2c3c([nH]c2c1)[C@@H](CO)N(C(=O)Nc1ccc(F)cc1)CC31CCN(S(=O)(=O)c2ccccc2)CC1 | active: -84.3% |
| COc1ccccc1C#Cc1ccc([C@H]2[C@@H](CO)N3CCCCN(S(C)(=O)=O)C[C@@H]23)cc1 | inactive: 20.2% |

| Structure (SMILES) | activity change |
| --- | --- |
| COc1cccc(CN2CCC3(CC2)CN(S(C)(=O)=O)[C@@H](CO)c2[nH]c4cc(OC)ccc4c23)c1 | inconclusive: -83% |
| CO[C@@H]1CN(C)C(=O)c2cc(NC(=O)Nc3ccc(C(F)(F)F)cc3)ccc2OC[C@H](C)NC[C@@H]1C | inconclusive: -81% |
| C[C@H](CO)N1C[C@H](C)[C@H](CN(C)C(=O)C2CCCCC2)Oc2ncc(/C=C/c3ccccc3)cc2C1=O | inconclusive: -80.1% |
| COc1ccc(CNC(=O)N(C)C[C@H]2OCc3ccccc3-c3c(n(C)c4ccccc34)C(=O)N([C@H](C)CO)C[C@H]2C)cc1 | inconclusive: -80.3% |
| C[C@@H]1CN([C@@H](C)CO)C(=O)Cc2cc(NC(=O)Cc3cn(C)c4ccccc34)ccc2O[C@H]1CN(C)S(=O)(=O)c1ccc(Cl)cc1 | inconclusive: -82.6% |
| OC[C@H]1CC[C@@H]2O[C@H](CCc3ccc(C#CCc4ccccc4)cc3)[C@H](n3cc(-c4ccccc4)nn3)C[C@@H]2O1 | inconclusive: -82.5% |
| COc1ccc2c3c(n(C)c2c1)[C@@H](CO)N(S(=O)(=O)c1ccccc1)CC31CCN(C)CC1 | inconclusive: -82.3% |
| COc1ccccc1C#Cc1ccc2c(c1)O[C@@H](CN(C)Cc1ccncc1)[C@H](C)CN([C@H](C)CO)S2(=O)=O | inconclusive: -81.3% |
| C[C@H](CO)N1C[C@H](C)[C@@H](CN(C)Cc2ccc(C(=O)Nc3ccccc3N)cc2)Oc2ccc(NC(=O)Nc3ccc(F)cc3)cc2C1=O | inconclusive: -81.7% |
| COc1ccc(C#Cc2ccc3c(c2)[C@@H]2[C@@H](CCN2C(=O)C2CCCC2)[C@@H](CO)N3)cc1 | inconclusive: -80.6% |
| CN(C)CC(=O)N1[C@H](CO)[C@H](c2ccc(-c3cccc(C(=O)N(C)C)c3)cc2)[C@@H]1C#N | inconclusive: -81% |
| Cc1noc(C)c1S(=O)(=O)N(C)C[C@H]1OCCCC[C@H](C)Oc2ccc(NC(=O)Nc3ccccc3)cc2C(=O)N([C@@H](C)CO)C[C@@H]1C | inconclusive: -81% |
| COc1cccc(NC(=O)N(C)C[C@@H]2Oc3cc(C#Cc4ccccc4)ccc3S(=O)(=O)N([C@@H](C)CO)C[C@@H]2C)c1 | active: -90.7% |
| COc1ccccc1NC(=O)N1CCCCN2[C@@H](CO)[C@H](c3ccc(C#CC4CCCC4)cc3)[C@@H]2C1 | active: -83% |
| Cc1ccc(S(=O)(=O)N(C)C[C@@H]2OCCCC[C@H](C)Oc3ccc(NC(=O)CCC(F)(F)F)cc3C(=O)N([C@@H](C)CO)C[C@@H]2C)cc1 | inconclusive: -80.8% |
| C[C@@H]1CN([C@@H](C)CO)C(=O)c2cc(NS(=O)(=O)c3cccs3)ccc2O[C@@H](C)CCCCO[C@@H]1CN(C)C(=O)Nc1cccc2ccccc12 | inconclusive: -81.1% |
| CC(=O)N1CC2(C1)[C@H](c1ccc(-c3ccccc3C)cc1)[C@@H](CO)N2C(C)=O | inactive: 16.9% |
| CO[C@@H]1CN(C)C(=O)c2cc(NC(C)=O)ccc2OC[C@H](C)N(C(=O)c2ccccn2)C[C@@H]1C | inactive: 12.5% |
